Experimental findings from the supplement of paper PMC11417369 are described below.

Some of the results follow.

The subject of the experiment is PfHDP1 homeodomain (GST-tagged). The experiment in a line: gcPBM binding intensity (ln(normalized median fluorescence intensity)); higher = stronger DNA binding. The method, boiled down:
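An Agilent 4 × 180k array carrying primer-extended double-stranded 36-bp intergenic genomic probes and negative controls received GST-tagged P. falciparum DNA-binding domains expressed in E. coli, about 25 μg on average, for 1 h. The binding buffer contained 1× PBS, 1% milk, 0.2 mg/ml BSA, 0.5% salmon testes DNA and 0.03% Triton X-100. Binding intensity is the top Masliner-normalised natural-log median intensity across replicate spots of either probe orientation, read after Alexa488 anti-GST antibody staining and a 488 nm scan.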
As to “ATATATATATATATATATATAATAAAAGATCATTTA [XGTACX_negctrl_site371]”, the “gcPBM binding intensity (ln)” value stood at 9.42.

In the case of “ATAATAAAAAGAAAAAGTACAAATGATTATGTTTGA [XGTACX_site3615]”, the “gcPBM binding intensity (ln)” value was 7.26.

Take “TAGATATATAAATACACACACATACACAAAAAAAAA [CACACA_site7652]”: the “gcPBM binding intensity (ln)” value is 6.97.

Regarding “TATGAATACATTTGTTGTACTTAAATTTCCTTTATT [XGTACX_site5374]”, the “gcPBM binding intensity (ln)” value is 6.44.

As to “TTACTTTTTTTTTTATGTACTTATATTTTTTACACT [XGTACX_site3503]”, the “gcPBM binding intensity (ln)” value turned out to be 6.9.

As to “AAATAATTTATGCATACACACATATATATATATATA [CACACA_site4020]”, the “gcPBM binding intensity (ln)” value stood at 9.28.

Turning to “TTTTTTATTATTATTATTTTTTATGTATAATAATGT [CACACA_negctrl_site631]”, the “gcPBM binding intensity (ln)” value stood at 6.37.

As to “TATAAATATCTGAATTGTACAGGTGAAAAAAAAAAT [XGTACX_site1867]”, the “gcPBM binding intensity (ln)” value was 6.93.

In the case of “ATATATATATATATTTATTCATATATTTTTTGTCTT [TGCATGCA_negctrl_site58]”, the “gcPBM binding intensity (ln)” value is 9.19.

Regarding “TTTTTATTTTTTCAGTGTACATTTAAATTATCTTAT [XGTACX_site3905]”, the “gcPBM binding intensity (ln)” value came to 8.08.

Turning to “TAAAGAAACGCATCGACGCACACTACAAAATAAAAA [CACACA_site1348]”, the “gcPBM binding intensity (ln)” value is 6.39.

Consider “GTACAATCATATACTACATGCAGTTTTTTTTATTGA [TGCATGCA_site230]”, for which the “gcPBM binding intensity (ln)” value came to 6.83.

“AAATAAATACATAATACATGCATATTTAATATATAG [TGCATGCA_site135]”: the “gcPBM binding intensity (ln)” value amounted to 6.28.

For “TTTTCTTTTTCTTGTACACACATAATATGGATGAAA [CACACA_site808]”, the “gcPBM binding intensity (ln)” value is 7.05.

In the case of “AATTTTTTTTAATGATGTACTTTTTGAAAATAAACT [XGTACX_site4221]”, the “gcPBM binding intensity (ln)” value was found to be 5.99.

“TAAATTATTATCCCCTCACACACAAAAATAAAAAGA [CACACA_site2886]”: the “gcPBM binding intensity (ln)” value came to 7.46.

As to “TATTTATAAACATACGCACACATTAATATATATATA [CACACA_site9314]”, the “gcPBM binding intensity (ln)” value is 8.5.

Consider “GAAGAAGTTTAAAAAGCACACAAAAAAAAAAAAAAA [CACACA_site9088]”, for which the “gcPBM binding intensity (ln)” value came to 6.29.

Consider “CACAAAATAAATTAAACACACAACATCATATATGTA [CACACA_site846]”, for which the “gcPBM binding intensity (ln)” value came to 6.57.

As for “CTTGTAGATATAAAATGTACAAAAATAAATTGCACA [XGTACX_site4409]”, the “gcPBM binding intensity (ln)” value is 8.36.

Take “AGATATTCTACTATGTGTACATATATATATATAATT [XGTACX_site5060]”: the “gcPBM binding intensity (ln)” value is 6.82.

For the sequence “TTTTTCTTTCTATTTATCAATATTAAAAAAAAAAAA [CACACA_negctrl_site1629]”, the “gcPBM binding intensity (ln)” value was 6.15.

On to “TTTTTATAATGATACATATATTATTTTATTCTTAAT [CACACA_negctrl_site124]”, for which the “gcPBM binding intensity (ln)” value was 6.18.

In the case of “TATACATGTATATATTGTACATATGTTTTTTTTACA [XGTACX_site3300]”, the “gcPBM binding intensity (ln)” value amounted to 6.85.

In the case of “TTTTTTCAAATTTTCTTTTTTCTTTTGTTTTTTTTG [CACACA_negctrl_site380]”, the “gcPBM binding intensity (ln)” value was 5.84.

As for “TTACTCATGAAAGATACACACATTCGTTATTTATAT [CACACA_site7517]”, the “gcPBM binding intensity (ln)” value is 6.44.

With “AATGGATATTTCTTTATATATATCTTATTTGATTAT [XGTACX_negctrl_site284]”, the “gcPBM binding intensity (ln)” value came out at 5.92.

Take “TTTCTATTCCATTCAACACACAAAAATGTATGCTTT [CACACA_site1072]”: the “gcPBM binding intensity (ln)” value came to 6.73.

In the case of “TATAAACGTATAATATGTACACACACATATATACAA [XGTACX_site1686]”, the “gcPBM binding intensity (ln)” value amounted to 6.52.

For the sequence “ATTATATAGAATTGTACATGCGAATTGTATAACGAT [TGCATGCA_site125]”, the “gcPBM binding intensity (ln)” value turned out to be 7.33.

As to “TATTTTTTTTTTTTTTTTTTTTTTATATATACATAT [CACACA_negctrl_site23]”, the “gcPBM binding intensity (ln)” value is 6.1.

With “AAAAAAAAAAAAAAAAATATATTTATGAAATAAAAA [TGCATGCA_negctrl_site262]”, the “gcPBM binding intensity (ln)” value came to 6.47.

Turning to “AAAAAAAATTTTATCTGTACACATTTTTTTCTTTTT [XGTACX_site4229]”, the “gcPBM binding intensity (ln)” value amounted to 6.31.

“ATATAATTTATGTGCACACACTCCTATTTTTAGCTT [CACACA_site50]”: the “gcPBM binding intensity (ln)” value is 11.3.

As to “AAAAAGTAAAAGAAAGCACACACACCGGTATATATG [CACACA_site9281]”, the “gcPBM binding intensity (ln)” value was found to be 6.47.

For ATAACAAAAATCCTTGTGCACTATTTTAATAGAGTC, the “gcPBM binding intensity (ln)” value stood at 10.5.

Consider “GTAGTCCAAAAAAAGCGTACACAGAAAAAAAAAAAA [XGTACX_site4273]”, for which the “gcPBM binding intensity (ln)” value came out at 6.08.

Consider “ACATTGCACCCGTGCACACATAGAAAAATAATTCTT [CACACA_site409]”, for which the “gcPBM binding intensity (ln)” value came out at 10.3.

“TACATCTTACTACTTATAATATAATATAGTATGAAT [TGCATGCA_negctrl_site8]”: the “gcPBM binding intensity (ln)” value was 6.24.

As to “CATTATGATTAAATATGTACATATTATTATATAAAT [XGTACX_site2477]”, the “gcPBM binding intensity (ln)” value worked out at 6.47.

For TACAATATATTTATAGTGCATATTACTTTTAACTTT, the “gcPBM binding intensity (ln)” value was found to be 8.29.

On to “TCGTAATAATATAAATGTACTTTATTAATTAAAAGA [XGTACX_site3416]”, for which the “gcPBM binding intensity (ln)” value was found to be 6.2.

Take “AACGGGTAATGCACAAAAAAAAAAAAATAAAATAAA [TGCATGCA_negctrl_site474]”: the “gcPBM binding intensity (ln)” value turned out to be 10.9.

As for “AAATTATTTTGTTATCATTATATATAGATTGAATAT [XGTACX_negctrl_site165]”, the “gcPBM binding intensity (ln)” value came to 6.53.

Take “TTCTTTTAAATTAGCTGTACGGTTTTCTACATGCAT [XGTACX_site356]”: the “gcPBM binding intensity (ln)” value is 6.93.

On to “ATGTAATTCTTTTACTTTTTTTTTTTTTTTTTTTTT [CACACA_negctrl_site979]”, for which the “gcPBM binding intensity (ln)” value was 6.8.

“TTATCATATGTATGCATACACACAAAAAATTATATA [CACACA_site397]”: the “gcPBM binding intensity (ln)” value was 6.83.

On to “CAAACAAATATATGTTGTACTTATTATATATACATA [XGTACX_site2998]”, for which the “gcPBM binding intensity (ln)” value turned out to be 6.4.

Consider “ATAAATGAGCCATATTAAATCCGTTACACGGGTGTG [CACACA_negctrl_site1368]”, for which the “gcPBM binding intensity (ln)” value stood at 5.89.

As to “AACAAAATAAGACACACACACAAATGTACCTATATA [CACACA_site7189]”, the “gcPBM binding intensity (ln)” value amounted to 6.75.

Consider “TCTTTTTTAAATAAAAGTACAAAAAAAAATAAAAAA [XGTACX_site2670]”, for which the “gcPBM binding intensity (ln)” value stood at 6.63.

As for “AAAAAAAATATGAAAACACACATATATAAATAAATA [CACACA_site113]”, the “gcPBM binding intensity (ln)” value came to 6.44.

On to “TAATATATATGTATGGCACACACGGATAAATATATA [CACACA_site930]”, for which the “gcPBM binding intensity (ln)” value was determined as 6.77.

Turning to CATGCCTTTAAAAAGGTGCAAACATTTTCACAAACA, the “gcPBM binding intensity (ln)” value was determined as 8.87.

With “AATAATATATATTACTGTACTAATATAAGGGACATC [XGTACX_site3744]”, the “gcPBM binding intensity (ln)” value came out at 7.1.

In the case of “TTGTCAAAAATTACACACATAAATGAATAAATAAAT [XGTACX_negctrl_site541]”, the “gcPBM binding intensity (ln)” value came out at 6.28.
